Measured values from the supplement of paper PMC11417369.
The other results are listed elsewhere or left out.

tested on: PfHDP1 homeodomain (GST-tagged); experiment: gcPBM binding intensity (ln(normalized median fluorescence intensity)); higher = stronger DNA binding
Procedure, shortened: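 Each value is the highest Masliner-normalised natural-log median intensity across replicate spots of either orientation of a probe. The probes were primer-extended double-stranded 36-bp intergenic genomic sequences on an Agilent 4 × 180k array, alongside negative controls, exposed for 1 h to GST-tagged P. falciparum DNA-binding domains expressed in E. coli. Bound protein was picked up with Alexa488 anti-GST antibody and scanned at 488 nm.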

Row | Sequence | gcPBM binding intensity (ln)
1 | ATATATCTTCTTTGCACACTTAAAGGGAAGTGATAA [CACACA_site342] | 10.2
2 | AAAATAATAAAAAAAAAAAAAAAAAAAAAAAAGTAT [TGCATGCA_negctrl_site193] | 6.22
3 | AAATAAAATAAAACAACACACACGAATGTATAAATA [CACACA_site885] | 6.68
4 | AAAAAAATAATAAAATGTACAAATAAACACATAAAG [XGTACX_site5102] | 6.76
5 | ACAAAGATAAAACATAAAATATATCAAACATAAAAT [XGTACX_negctrl_site198] | 6.35
6 | AATAAATATAAATACACACCCATATAAATATAAATA [CACACA_site7264] | 6.85
7 | AAAAAAAATACATGTTGTACGGTACAAATATAAAGT [XGTACX_site2863] | 7.52
8 | TACATATTGAATAAGACACACATATATATATATATA [CACACA_site1878] | 9.43
9 | TAAGGATTGGTATAAAGTACAGGAGTAAATTGAAAA [XGTACX_site8525] | 6.5
10 | CATACACATATATATTGTACACATATATGTATGTAT [XGTACX_site4030] | 6.58
11 | ATATTTTTTTTTTATTGTACCCTCATAAAAGAAAAG [XGTACX_site773] | 6.36
12 | TACAACAAGTAATGGTGTACATTATATTATGTAATA [XGTACX_site1194] | 6.37
13 | TATAACAATTTTTATGCATGCGACTATAATATTTTT [TGCATGCA_site508] | 6.62
14 | TATATACACGCACATACACACAAATAAAAAAACACC [CACACA_site7578] | 8.22
15 | GTATTATTCTATAGAAGTACAGTATATTATTATTTA [XGTACX_site5073] | 6.26
16 | TGTGTTGTAATTAAAACACACATGAAAAAATTAAAA [CACACA_site51] | 6.62
17 | AAAAAAATAAATAAATGTACATATATAAAACATTGT [XGTACX_site2136] | 6.67
18 | ATATAATTATATTCCATACACACATATATTTAAAGG [CACACA_site2958] | 6.8
19 | AAACGAGAACATAATAAATACATAAATAAATAAATA [GTGCAC_negctrl_site433] | 6.43
20 | ATATACATATCAATGTAATATTATATACTTTTTTAG [CACACA_negctrl_site816] | 6.13
21 | ATTTTTTTTTTTTTTTTTTTTTTTTTTTTTGTTGTT [CACACA_negctrl_site1313] | 5.91
22 | TTAGATATTATTATATGTACATATTATATGTATTAT [XGTACX_site3836] | 6.37

Row | Sequence | gcPBM binding intensity (ln)
23 | TAGTTAATATGATTATGTACATATATATATTAATTT [XGTACX_site1750] | 6.32
24 | ATAATATATTTATAAACACACAAAAAAAGTTATATA [CACACA_site6831] | 6.73
25 | TGTATATGAAAAAATAGTACTCATATAAATATCTTT [XGTACX_site6542] | 6.29
26 | ATTAATAATATTACATGTACATAATATAATTGAAAA [XGTACX_site5084] | 6.72
27 | TTTATTTTATTCACTATCATAAGCAAAACTTAAACA [GTGCAC_negctrl_site287] | 6.17
28 | AATATATTAAATATTACACACATACATTTAGTGTAA [CACACA_site5145] | 6.35
29 | TAGTTCTTTTAATTTAGTATTATACAATATTGGAAA [CACACA_negctrl_site521] | 6.3
30 | TATATATTAAACTTTGCACACATAATTTAACTACAA [CACACA_site3440] | 10.7
31 | TTAATCCACAGACACACACACACAAAATAAAATACA [CACACA_site244] | 6.88
32 | TTATTTATGAAGTATACACACAATATATATATATAT [CACACA_site1248] | 9.09
33 | TACATTGTATACATATGTACACATATATATATATAT [XGTACX_site6174] | 9.17
34 | TATTTATGTTATAATTGTACAATAAACAAATTTTTT [XGTACX_site5306] | 6.53
35 | AAAAAAATCTATATTACACACATATATACCTATATA [CACACA_site7464] | 6.36
36 | AAATGGGCTTATTTATGTACTTAAATATATCTACCC [XGTACX_site3823] | 6.44
37 | TAATCAATTCAATATTGTACGATATTTACCTTTAAA [XGTACX_site4678] | 7.25
38 | CCCACATAAAAAAATAAACACACATATGTATATATA [CACACA_site9040] | 7.07
39 | AACCTCGTGTAATATGCATGTTCCCTTCAAAGTTTT [TGCATGCA_site459] | 6.43
40 | TACATATATATATACACACATACATATATATACGCA [CACACA_site792] | 6.77
41 | ATATTTTGTATAATCACACACACTATTCTTAAATAG [CACACA_site7270] | 6.59
42 | AGAAATTAATCGAAGTGTACATATAAACATACATAT [XGTACX_site5518] | 6.39
43 | ATTATACATTTTAGATGTACATATTTTAAATTTAAT [XGTACX_site5174] | 6.35
44 | AACAAACAAACAAATATACACACTTTTGTATAAAGT [CACACA_site3509] | 6.68

Row | Sequence | gcPBM binding intensity (ln)
45 | TATTTATTTGTGGGGTGTACGAAATTTTTTTTTTTT [XGTACX_site5091] | 7.67
46 | ATCTATGGAGCTTATACACACTTTTATATTTTAACA [CACACA_site5994] | 7.29
47 | TTTGAATTTTTATATACACACATTATTATATTATAT [CACACA_site1593] | 7.02
48 | TATATATATATAATGTGTACATACTAAATAGAGGAC [XGTACX_site4153] | 9.05
49 | TAAATATAAAAATGCACACACACAAAAAAAAAAAAA [CACACA_site895] | 9.29
50 | GAAATGTATAAATCCATACACACATAAATTTTAATA [CACACA_site2364] | 6.31
51 | TTTACATTAAATCACGCACACAAAAAAAAAAAAAAA [CACACA_site2418] | 6.62
52 | ATAGGTGAATACTAATATAAATTCAAGAGGGAAAAG [CACACA_negctrl_site720] | 6.17
53 | TGATATTATATATATACACACATGTATGTATATATA [CACACA_site1364] | 6.5
54 | ATAAATATATGATAAAGTACATATTTATATAATAAA [XGTACX_site7263] | 6.22
55 | ATGTATCTATATATATGTACACATATTTTAATTAAA [XGTACX_site3673] | 6.66
56 | ATATTTATTTATAATTGTACTAATAATATATTTTAA [XGTACX_site587] | 6.1
57 | TTTTTCATGTTTATTAGTACATATATTAAGAATGGA [XGTACX_site3493] | 6.35
58 | TTTTGTAAATATATATGTACATATATATATATATAT [XGTACX_site5803] | 9.31
59 | ACCTATTTATAATAGTGTACGTACAAATTTGTTTAC [XGTACX_site8176] | 6.71
60 | AAAATAAAAAATTAATGTACTTAGAATTGTCACTAA [XGTACX_site1346] | 5.87
61 | TAAAATAATAAACAGAAGAAATCATTCATATAAAAA [XGTACX_negctrl_site502] | 6.02
62 | AATTTGTTGAAACACACACACACATACATATATATA [CACACA_site2287] | 7.02
63 | GGAATAAATAATATTATACACACGTATATTATTATA [CACACA_site2435] | 6.31
64 | AAGCTTTCATAAAGATGTACTTTTTAAAAATAATCT [XGTACX_site5725] | 6.07
65 | TGTGCATAATTTTGTGCACACCACGCTAATAATTTT [CACACA_site2915] | 11.5
66 | CAAAAAAAGGAAAAGATACACACCGTAAATTAAAAT [CACACA_site3612] | 6.66

Row | Sequence | gcPBM binding intensity (ln)
67 | AAATTTAGGAACATTATATATATATATATATATATA [CACACA_negctrl_site862] | 9.43
68 | TATTTCATCTTATTTTAGGAAAAACTAATATATAAG [CACACA_negctrl_site1823] | 6.06
69 | TATTCGTCTTTTTTCTCACACACCCTTTTTATTAAA [CACACA_site2508] | 7.09
70 | GAACATTTGAAATATGCACACATGTATAAACCTACA [CACACA_site2654] | 9.12
71 | TAAAAATAAAGAAAATGTACATAAATAATAATACAT [XGTACX_site2278] | 6.45
72 | AAATTAAAGGCATAAAAGAAAATATTTAATAAAAAA [CACACA_negctrl_site1689] | 6.08
73 | AAAGAAAATAACAAAATTTTGAAAACATCACATTCG [CACACA_negctrl_site89] | 6.83
74 | ATATATAATAAACAGGTGCATTGTTTTATTTTGTAT | 8.8
75 | TTTTTTTTAATTGTGATACGTATATTATTTAATGAT [CACACA_negctrl_site38] | 6.36
76 | ACCAGTTCTTAATACAAATATGTACATATATATATA [GTGCAC_negctrl_site56] | 9.03
77 | AGCAGGATTAAAAAAAGTACAAGAATTAATATTTAA [XGTACX_site3413] | 6.32
78 | TATATCTATAATATTACACACATATATTTATATTTT [CACACA_site7595] | 6.59
79 | AATTATTATCCCCTCACACACAAAAATAAAAAGAAT [CACACA_site2885] | 7.49
80 | ATTTTTTATTGTTATAAAAAAAAAATTAAACAATTA [CACACA_negctrl_site1077] | 6.25
81 | ATTATTTTATGAGACATAAAAAAAAAAAAAAAAAAA [CACACA_negctrl_site1067] | 6.18
82 | AGATGAGAGATATATACACACAATAATACCTATTTA [CACACA_site6542] | 6.47
83 | TTATAACTTTTCACAAGTACATATATATATGTATAA [XGTACX_site2306] | 6.66
84 | TTTGGAAAGCGTGATTTTTGACAAACACAAAAAAAA [CACACA_negctrl_site651] | 5.94
85 | ATATATATGTTTTTATGTACATATTTTTCTCCTTCA [XGTACX_site5899] | 6.7
86 | TTTTTATTCCAGTATTCACACACGAATAACCACATA [CACACA_site1897] | 6.42
87 | ATTTTCTTTTTTAAACGTACACATATTAAATATATA [XGTACX_site7773] | 6.99
88 | AATAAATTCATGAATTGTACGTAATGATAACATGAA [XGTACX_site2591] | 6.57
